In ChEMBL document CHEMBL4888484, “Replenishing the malaria drug discovery pipeline: Screening and hit evaluation of the MMV Hit Generation Library 1 (HGL1) against asexual blood stage Plasmodium falciparum ,using a nano luciferase reporter read-out” (2022):
Hit rate of the full screen: of about 150,000 compounds, about 540 (0.36%) showed an effect of 50% or more. This is one part of the list.

system: Plasmodium falciparum; assay: Primary screen in NF54 nanoGlo assay, in single point, at 2uM, 72h; a lower Z score goes with more inhibition; assay type: functional, Erythrocyte; settings: timepoint 72 hour

| SMILES | % Inhibition [%] | Z score |
| --- | --- | --- |
| Cc1ccc(CNC(=O)c2nc(C)n(C3CCN(C)CC3)c2C)o1 | -3 | 0.44 |
| Cn1c(=O)c2[nH]c(N3CCN(CCOC(=O)c4cccc(Cl)c4)CC3)nc2n(C)c1=O | -11 | 1.7 |
| CN(Cc1nc(-c2ccccc2)cs1)C(=O)c1nc2ccccn2c1F | -2 | 0.32 |
| CC(C)CCc1nnc(NCc2cnc3cnccn23)o1 | 0 | 0.03 |
| COC[C@H](C)NC(=O)c1ccc(C)s1 | 0 | -0.07 |
| Cc1ncsc1CCC(=O)N1CCC[C@H](Nc2ccc3c(c2)OCCO3)C1 | 8 | -1.02 |
| Cc1c[nH]c([C@H](C)NC(=O)Cc2noc3ccccc23)n1 | -14 | 1.73 |
| O=C(c1ccoc1)N1CCC(n2ccnn2)CC1 | 3 | -0.51 |
| C=C[C@H]1OCC[C@@H]1C(=O)Nc1nc2c(s1)CCCC2(C)C | -5 | 0.6 |
| CN(C(=O)c1csc2ccccc12)C1(C(N)=O)CCCC1 | -15 | 1.34 |
| CN(CCc1nc(-c2cccc(F)c2)n[nH]1)[C@H]1CCS(=O)(=O)C1 | -12 | 1.54 |
| Cc1sc2ncnc(N3[C@@H]4CC[C@H]3CNC(=O)C4)c2c1C | -9 | 1.5 |
| O=C1CCn2c(nc3ccccc3c2=O)N1 | -17 | 2.12 |
| Cc1ccc(OCC(=O)N2CCCC2C2CCCCC2=O)cc1C (stereo unspecified) | -6 | 1.28 |
| CCNc1ccc(Cl)cc1C(=O)N[C@H]1CCN(C2CCOCC2)C1=O | 8 | -1.32 |
| c1ccc(-n2cc(CCNCc3ccc(-c4cc[nH]n4)o3)cn2)cc1 | -2 | 0.44 |
| CN(CC(=O)N[C@@H]1[C@@H]2CCO[C@@H]2[C@@H]1C1CCCC1)Cc1ccncc1 | -6 | 0.88 |
| N#Cc1c(N)sc2c1CCN(CCc1cccs1)C2 | -3 | 0.48 |
| CO[C@H]1C[C@@H](O)C12CCN(C(=O)Nc1ccc(C)cc1)CC2 | -14 | 1.88 |
| CN(C)c1ccc(NC(=O)C2CCC2)cc1CN(C[C@H]1CCCO1)C(=O)CC(C)(C)C | -14 | 1.56 |
| CCn1cc(C(=O)N2CCC(CCOC)(c3noc(C4CC4)n3)CC2)cn1 | -13 | 1.68 |

| SMILES | % Inhibition [%] | Z score |
| --- | --- | --- |
| COC(=O)c1ccc([C@@H]2CCCCN2)n1C | -5 | 0.5 |
| CC(=O)c1cccc(S(=O)(=O)N2CCN(S(=O)(=O)c3ccc4ccccc4c3)CC2)c1 | 2 | -0.35 |
| COc1ccc(F)c(CN2CCC[C@@]3(CCN(C(=O)CC(C)C)C3)C2=O)c1 | 4 | -0.81 |
| Cc1cccc(OCC(=O)N(Cc2ccc(N(C)C)cc2)[C@H]2CCS(=O)(=O)C2)c1 | 0 | 0.03 |
| O=C(c1ccc(Cl)cc1)N(C(=O)c1ccc(Cl)cc1)n1cnnc1 | 5 | -0.64 |
| CN(Cc1ccc(N(C)C)nc1)Cc1noc2c1CCCC2 | -18 | 3.34 |
| CC(=O)N1C[C@H]2CCN(C(=O)c3noc(C)c3COc3ccc(C)cc3)C[C@@]2(CO)C1 | -17 | 1.96 |
| COc1ccc(CNC(=O)Cn2nc(C(=O)N3CCN(C)CC3)cc2C)cc1 | 0 | 0.01 |
| Cc1cnc(CCNC[C@H](C)c2ccccc2)s1 | -15 | 1.32 |
| Nc1ncccc1CN1CCC[C@H](c2nnc3ccccn23)C1 | 17 | -2.24 |
| COCCN(CC(F)F)C(=O)NCc1ccoc1C | -4 | 0.59 |
| CCc1cc(N[C@H]2CCN(CC(=O)N(C)C)C[C@@H]2O)nc(N(C)C)n1 | -8 | 1.53 |
| Cc1nc(CN2CCN(Cc3c[nH]nc3-c3ccc(F)cc3)CCC2=O)no1 | -12 | 2.26 |
| COCc1ccc(CN2CCC(CCC(=O)NCc3cccc(Cl)c3)CC2)o1 | -13 | 1.68 |
| Cn1nc(C(=O)N2CC[C@@]3(CCCN(CCCc4ccccc4)C3)C2)ccc1=O | 4 | -0.5 |
| NC(=O)c1cc(N2CC(CO)(c3ccccc3)C2)ccn1 | 16 | -1.98 |
| Cc1csc(CCNc2ncnc(C)c2C)n1 | -8 | 1.21 |
| O=C(c1cc2n(n1)CCCO2)N1CCC(Cc2ccccc2)CC1 | -1 | 0.11 |
| Cc1cc(NC(=O)C[C@H]2COc3ccccc3NC2=O)ccc1Br | -1 | 0.1 |
| Cc1ccc(C(=O)N2CCc3[nH]nc(C(=O)N4CCN(C(C)C)CC4)c3C2)cc1C | -11 | 1.27 |
| O=C(c1cccnc1)N1C[C@@H]2OCC(=O)N(CC3CC3)[C@@H]2C1 | 29 | -3.28 |

| SMILES | % Inhibition [%] | Z score |
| --- | --- | --- |
| COc1ccc(NC(=O)CCc2nnc3ccc(N4CCC5(CC4)OCCO5)nn23)cc1 | -13 | 1.74 |
| COc1ccc(C(=O)c2nccn2CC(=O)Nc2cnn(C)n2)cc1 | 0 | 0.05 |
| O=C(Cc1ccccc1Br)Nc1ccc(-c2onc3c2CCc2ccccc2-3)cc1 | -18 | 1.59 |
| Cc1n[nH]c(C)c1CN1C[C@@](C)(c2ccccc2)CCC1=O | 0 | -0.02 |
| N=C(NS(=O)(=O)c1c(F)cccc1F)c1ncc(C(F)(F)F)cc1Cl | 30 | -3.92 |
| COc1ccc(CNC(=O)NCCn2nc(-n3ccc4ccccc43)ccc2=O)cc1OC | 0 | -0.05 |
| COc1ccccc1N(CCC(N)=O)C(=O)CN(CC(F)F)C[C@H]1CCC=CO1 | -2 | 0.21 |
| COc1nc2c(cc1CNC(=O)c1ccc(O)cn1)C(=O)N(C1CCCC1)C2 | -12 | 2.15 |
| Cc1ccc(Oc2nc(N3CCOCC3)nc3c2CN(S(=O)(=O)c2cccc(Cl)c2)CC3)cc1 | 8 | -1.2 |
| Cc1c(NC(=O)c2ccc(Cl)cc2)c(-n2cnnc2)nn1C | 26 | -3.54 |
| Cn1nccc1-c1nc(-c2ccccc2Cn2cccn2)no1 | -9 | 0.77 |
| NC(=O)CN1CCC(C(=O)N2CC[C@]34C(=O)N(Cc5cn(nn5)CCCOc5cccc(c5)[C@@H]23)c2ccccc24)CC1 | -8 | 1 |
| O=C(CC(c1ccccc1)c1ccccc1)N1CCC[C@H](n2cnc3ccccc3c2=O)C1 | -7 | 1.16 |
| CCc1cccc2c(-c3csc(-c4cccc(C(N)=O)c4)n3)c[nH]c12 | 7 | -1.14 |
| Cc1c(C(=O)Nc2ccc(F)c(Cl)c2)sc2ncnc(N3CCCC[C@@H]3C)c12 | 9 | -1.42 |
| Cc1nc2ccccc2cc1NC(=O)CC1CC1 | -11 | 1.61 |
| O=S(=O)(NCCc1ccccc1Br)[C@H]1CCOC1 | -7 | 0.67 |
| CCC(CC)C(O)CNC(=O)NC(C)c1cn(C)nc1C (stereo unspecified) | -8 | 1.58 |
| Cc1nonc1CNC1CCN(c2ccc3c(c2)CCC3)CC1 | -2 | 0.27 |
| CC(C)C(C(=O)N1CCC2(C1)NC(=O)NC2=O)c1ccccc1 (stereo unspecified) | -7 | 1.53 |
| O=C(Nc1cc(-c2ccccc2)nc(C(Cl)(Cl)Cl)n1)c1ccccc1 | 2 | -0.23 |

| SMILES | % Inhibition [%] | Z score |
| --- | --- | --- |
| COCCCN1C(=O)CC(CC(=O)NC(c2ccco2)C(F)(F)F)(c2ccccc2C)C1=O (stereo unspecified) | 10 | -1.21 |
| CNc1nc(N)c(C(=O)Nc2cc(C)on2)s1 | -13 | 2.17 |
| CCCC(O)(CCC)CNc1ncc(C(=O)N(C)C)cc1Cl | -13 | 1.17 |
| Cn1cc(C(=O)Nc2ccc3c(c2)nc(C(C)(C)C)n3C)ccc1=O | -2 | 0.23 |
| O=C(O)Cc1ccc(CN2C[C@@H]3CC[C@@H](C3)C2)cc1 | -8 | 1.31 |
| CCS(=O)(=O)N(C1CC1)[C@H]1CCOC2(CCN(C(=O)Cc3cccc(F)c3)CC2)C1 | -3 | 0.45 |
| O=C(c1c[nH]c(C(=O)N2CCCC2)c1)N1CCN(c2cccc(Cl)c2)CC1 | 24 | -2.67 |
| O=C(NCCCF)c1cccc(Br)c1Cl | -20 | 2.74 |
| COC1(c2nc(-c3cccc(NC(=O)C(C)C)c3)no2)CCOCC1 | -11 | 1.08 |
| OC1CCN(CC2(c3ccccc3)CC2)CC1 | -6 | 0.83 |
| COc1ccnc(CN2CCC[C@H](C(=O)c3cc(C)c(OC)c(C)c3)C2)c1OC | 8 | -1.25 |
| CCOC(=O)c1cccc(Nc2onc(-c3cccc(Cl)c3)c2C(=O)OC)c1 | -6 | 1.11 |
| O=C(NCC(O)CNC(=O)C1(c2cccc(F)c2)CCC1)C1(c2cccc(F)c2)CCC1 | -7 | 1.02 |
| Cc1ccc(C)c(NC(=O)NC2CCCCCCC2)c1 | 8 | -1.11 |
| O=C(CCOCC(F)(F)F)NCC=Cc1ccccc1 | 0 | -0.01 |
| CC1(NC(=O)C2(N3CCCCC3)CCCCC2)CCC1 | 1 | -0.08 |
| COCCNC(=O)[C@@H](NC(=O)c1cccc(C)c1)C1CCN(C(=O)c2ccco2)CC1 | 6 | -0.74 |
| O=C1CN(Cc2ccc3c(c2)C2c4ccccc4C3c3ccccc32)CCN1 | 1 | -0.18 |
| O=C(NC1CCOCC1)N1CC[C@H](n2cnc3ccccc32)C1 | -8 | 1.51 |
| CC1CCN(c2cncnc2-n2cc(NC(=O)NC3CCCCC3)cn2)CC1 | -10 | 1.17 |
